Hit rate of the full screen: of about 390,000 compounds, about 760 (0.19%) were called active. Roughly 3% stayed inconclusive and do not appear here. The call rests on the fitted dose curve; in most records, active means well fitted inhibition curve with a large enough effect; inconclusive means small, poorly fitted or top-dose-only effect; inactive means flat fitted curve, though single readings scatter. The list shows a part of the results, in another mix than the full data. Where a structure was tested more than once in an assay, its records may differ in their call.

Data on 47 compounds can be found in PubChem BioAssay AID602313 (National Center for Advancing Translational Sciences (NCATS), 2012).
Potency means the concentration at half of the fitted maximal effect.

The assay is described as follows: qHTS for Inhibitors of Vif-A3F Interactions: qHTS. Further: nearly all actives have a fitted effect of over 65% in size. On activity, negative = active: % of control where 0% means no effect. The conditions noted are these: HeLa A3F-eYFP + Vif (tagged APOBEC3F with the HIV-1 protein that degrades it), YFP fluorescence increase; series mostly up to 46.1 µM; activity, negative = active: at the top concentration. From the text:
The recent discovery and characterization of host restriction factors, which provide a potent defense to invading retroviruses, has provided new targets for antiviral drug development. APOBEC3G (A3G) and APOBEC3F (A3F) are potent cytidine deaminases that block HIV-1 replication; HIV-1 expresses the Vif protein, which counteracts A3G and A3F by binding to them and inducing their proteasomal degradation. The Vif-A3G and Vif-A3F interactions provide two potential targets for development of small molecules which can interfere with the ability of Vif to degrade A3G or A3F. […] To identify inhibitors that can interfere with Vif mediated degradation of A3G and A3F, we have developed Hela cell lines that stably express A3G or A3F tagged with eYFP at the C-terminal end (A3G-eYFP or A3F-eYFP, respectively) and Vif. In the absence of an inhibitor, Vif induces degradation of A3G-eYFP and A3F-eYFP, and the cells are not fluorescent. In the presence of an inhibitor, it is expected that Vif will be unable to degrade A3G-eYFP and/or A3F-eYFP, resulting in an increase in yellow fluorescence. In this assays Vif A3F was screened against the Molecular Library Small Molecule Repository (MLSMR). NIH Chemical Genomics Center [NCGC] NIH Molecular Libraries Probe Centers Network [MLPCN] MLPCN Grant: MH093245 Assay Submitter (PI): Vinay Pathak, National Cancer Institute
5 uL of 700 cells/well of A3F-YFP cells are dispensed into black, clear bottom plates. The plates are incubated overnight at 37 deg C. 23 nL of compounds are added by pintool. The plates are incubated overnight at 37 deg C and then read on the TTP Acumen (Ex 488/ Em 500-530).
(In general: In qHTS, concentration-response curves come from the screen itself.)
Consider `Nc1ccc(S(=O)(=O)O)cn1`, for which the Potency result was “inactive”. In the case of `CCOc1ccc(NC(=O)CSc2nc3ccsc3c(=O)n2CCCCCC(=O)O)cc1`, the “activity, negative = active” value is inactive: -4.82%. For `O=C(C[C@H]1C/C=C\CC[C@H](Cc2ccc(F)cc2)C(=O)O[C@@H](c2ccccc2)CNC1=O)N[C@@H](CO)Cc1ccccc1`, the “activity, negative = active” value was inactive: -12.4%. As for `CCOc1c(Cl)cc(CNCc2ccccn2)cc1OC`, the “activity, negative = active” value was inactive: 3.85%. With `COc1cc(CNc2ccc3[nH]c(=O)[nH]c3c2)cc(Br)c1OCc1ccccc1F`, the “activity, negative = active” value is inactive: -11.7%. Consider `CCOc1ccccc1C1CC(c2cccs2)=NN1S(C)(=O)=O` (configuration not stated), for which the Potency was active: 31.6 µM. Consider `Cc1cccc(C(=O)NC(=S)N2CCc3ccccc3C2)c1`, for which the Potency was active: 8.91 µM. Turning to `C/C(=N/Nc1ccc([N+](=O)[O-])cc1)c1c[nH]c2ccccc12`, the Potency is active: 6.31 µM.

As for `CCSc1nnc(-c2sc3nnc(-c4ccccc4)c(-c4ccccc4)c3c2N)o1`, the Potency was active: 12.6 µM. Turning to `CCC(=O)/C=C1\Sc2ccc(OC)cc2N1CCO`, the “activity, negative = active” value was inactive: -0.593%. As for `Cc1nn(-c2ccccc2)c(C)c1C(=O)OC/C(O)=C(\C#N)c1nc2ccccc2[nH]1`, the “activity, negative = active” value is inactive: 0.993%. The same measure, in the same setting: under `CCOC(=O)/C(=N/Nc1ccc(Br)cc1)N1CC(C)OC(C)C1` (configuration not stated) stands inactive: -14.6%.

Regarding `Cc1ccccc1NC(=O)/C=C/c1ccc([N+](=O)[O-])s1`, the Potency is active: 10 µM. Take `O=C(C[C@H]1C/C=C\CC[C@@H](Cc2ccc(F)cc2)C(=O)O[C@@H](c2ccccc2)CNC1=O)N[C@@H](CO)Cc1ccccc1`: the “activity, negative = active” value is inactive: -4.08%. In the case of `Cc1noc(C)c1NC(=O)N(C)C[C@H]1Oc2c(NC(=O)c3ccncc3)cccc2C(=O)N([C@H](C)CO)C[C@@H]1C`, the “activity, negative = active” value was inactive: -25.2%. Consider `S=C(NC1CCCCC1)N(CCc1ccccc1)CCc1ccccc1`, for which the Potency was active: 7.08 µM. For the compound `Cc1ccc(NC(=O)C(Cc2ccccc2)n2cccc2)cc1` (configuration not stated), the “activity, negative = active” value was inactive: 0.361%. Turning to `CN(/C=C/C(=C\C=[N+](C)c1ccccc1)OCCCS(=O)(=O)[O-])c1ccccc1`, the “activity, negative = active” value is inactive: -21.3%. With `Cc1ccc(S(=O)(=O)NCCc2nnc3ccc(SCc4cccnc4)nn23)cc1`, the “activity, negative = active” value was inactive: 32.3%.

Regarding `CN(C)c1ccc2nc3c(=O)[nH]c(=O)nc-3n(CC(O)C(O)C(O)CO)c2c1` (configuration not stated), the Potency was active: 8.91 µM. Regarding `CCN(CC)C(=O)C1c2ccccc2Oc2ccccc21`, the “activity, negative = active” value was inactive: 30.7%. As to `Clc1ccccc1C1CC(c2ccccc2)=Nc2ccccc2N1` (configuration not stated), the Potency is active: 20 µM.

Take `COc1ccc(NC(=O)c2ccco2)cc1NC(=O)c1c(OC)cccc1OC`: the “activity, negative = active” value is inactive: 3.06%. Turning to `COc1ccccc1/C=C/C=N/n1c(-c2ccc(Cl)cc2)n[nH]c1=S`, the “activity, negative = active” value was inactive: -6.76%. On to `CCC(C)Sc1ccc([C@@H]2[C@@H]3C(=O)N(CC)C(=O)[C@@H]3[C@]3(C(=O)OC)CCCCN23)cc1` (some centres not stated), for which the “activity, negative = active” value was inactive: -24.9%. Take `CC(C)(C)c1ccc(S(=O)(=O)N(CCCN2CCOCC2)Cc2cccs2)cc1`: the “activity, negative = active” value was inactive: -12.1%.

As to `Cc1c(C(=O)N(Cc2ccc(N(C)C)cc2)C2CCS(=O)(=O)C2)oc2ccccc12` (configuration not stated), the “activity, negative = active” value was inactive: 2.4%. Same read-out and setting: next, `Oc1cc2c(cc1O)[C@H]1c3ccc(O)c(O)c3OC[C@@]1(O)C2`: inactive: -20.9%; `CCCNC(=O)Cn1c(=O)/c(=C\c2ccc(-c3cccc([N+](=O)[O-])c3)o2)s/c1=C\C(=O)C(C)(C)C`: inactive: -7.88%; `COc1ccc(-c2ccnc3[nH]n(-c4ccccc4)c(=O)c23)cc1`: inactive: -4.53%. For the compound `CC(=O)C1=C(C)NC(SCC(=O)c2ccc(Cl)cc2)=C(C#N)C1c1ccco1` (configuration not stated), the Potency was active: 25.1 µM. For the compound `CCCN(CCC)CCNC(=O)c1cc2c(-c3ccc(Cl)cc3)nn(C)c2s1`, the “activity, negative = active” value was inactive: 0.565%. Turning to `CCCCC(=O)N(CCOC)c1nnc(-c2ccccc2C)s1`, the “activity, negative = active” value was inactive: 30.5%.

With `COc1cc(/C=C2\SC(=S)N(CC(=O)O)C2=O)ccc1OC(=O)c1ccco1`, the “activity, negative = active” value is inactive: -36.2%. As for `CCN=c1scc(-c2ccc3c(c2)NC(=O)CO3)n1N=C1CCCC1`, the “activity, negative = active” value is inactive: -2.62%. Regarding `C=CC[C@@H](CC(=O)N[C@H](CO)Cc1ccccc1)C(=O)N[C@@H](COC(=O)[C@@H](CC=C)CC(=O)OC(C)(C)C)Cc1ccccc1`, the “activity, negative = active” value was inactive: 9.22%.

In the case of `CCN(CC)C(=O)Cn1c(=O)n(-c2ccccc2)c(=O)c2c3c(sc21)CCC3`, the “activity, negative = active” value was inactive: 6.02%.

`Nc1c2ccccc2nc2ccccc12`: the “activity, negative = active” value was inactive: -2.71%. On to `Cc1ccc(-c2nc3ncccn3c2Nc2ccc3c(c2)OCCO3)cc1`, for which the “activity, negative = active” value is inactive: 5.37%.

For `O=C(Nc1ccc(Oc2ccc(NC(=O)Nc3ccccc3Cl)cc2)cc1)Nc1ccccc1Cl`, the Potency is active: 11.2 µM. `CC(=O)NCCNC(=O)c1ccc(CSc2ccc(Cl)cc2)cc1`: the “activity, negative = active” value is inactive: 27.9%. As for `CCc1ccc(NC(=O)Cn2c(=O)c3cccn3c3ccccc32)cc1`, the “activity, negative = active” value was inactive: -21.6%. Consider `Cc1ccc(-c2ccc(/C=N/NC(N)=S)o2)cc1`, for which the Potency is active: 5.62 µM. Consider `N#C/C(=C\c1ccc(N2CCOCC2)o1)C(=O)N1CCOCC1`, for which the “activity, negative = active” value was inactive: -24.5%. Turning to `COC(=O)C1=CO[C@@H](C)[C@H]2CN3CCc4c([nH]c5ccccc45)[C@@H]3C[C@H]12`, the “activity, negative = active” value is inactive: -0.534%.

Consider `CC1=NN(c2ccccc2)C(=O)/C1=C\C=C\c1ccccc1`, for which the “activity, negative = active” value is inactive: 0.397%. Still for that read-out and setting: under `CCc1ccc2oc(C(=O)NCC(c3ccc(OC)cc3)N3CCCCC3)c(C)c2c1` (configuration not stated) stands inactive: -12.1%.
